# Laboratory results published in publication PMC7150769.
# Protein sequences, listed by entry. Tags and fused reporters are not part of them. Residues count along the entry.
# UniProt P16794: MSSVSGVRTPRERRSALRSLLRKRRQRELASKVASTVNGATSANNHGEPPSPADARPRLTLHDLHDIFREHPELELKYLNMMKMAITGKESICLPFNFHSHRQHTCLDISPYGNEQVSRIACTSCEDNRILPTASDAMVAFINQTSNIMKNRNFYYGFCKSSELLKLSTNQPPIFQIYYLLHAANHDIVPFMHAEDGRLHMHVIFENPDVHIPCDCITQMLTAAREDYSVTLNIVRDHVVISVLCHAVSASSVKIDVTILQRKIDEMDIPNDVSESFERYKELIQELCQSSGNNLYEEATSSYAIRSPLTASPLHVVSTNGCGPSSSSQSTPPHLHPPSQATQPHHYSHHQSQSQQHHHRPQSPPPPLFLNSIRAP
# UniProt D3XDN8: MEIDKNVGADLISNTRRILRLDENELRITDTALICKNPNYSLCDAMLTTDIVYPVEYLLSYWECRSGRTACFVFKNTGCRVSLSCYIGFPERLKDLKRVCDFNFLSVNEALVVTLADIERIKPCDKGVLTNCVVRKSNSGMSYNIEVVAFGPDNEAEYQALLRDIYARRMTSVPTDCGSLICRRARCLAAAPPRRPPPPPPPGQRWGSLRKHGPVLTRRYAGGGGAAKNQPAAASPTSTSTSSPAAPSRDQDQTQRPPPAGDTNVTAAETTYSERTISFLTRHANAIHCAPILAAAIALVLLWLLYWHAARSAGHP
# UniProt P16791: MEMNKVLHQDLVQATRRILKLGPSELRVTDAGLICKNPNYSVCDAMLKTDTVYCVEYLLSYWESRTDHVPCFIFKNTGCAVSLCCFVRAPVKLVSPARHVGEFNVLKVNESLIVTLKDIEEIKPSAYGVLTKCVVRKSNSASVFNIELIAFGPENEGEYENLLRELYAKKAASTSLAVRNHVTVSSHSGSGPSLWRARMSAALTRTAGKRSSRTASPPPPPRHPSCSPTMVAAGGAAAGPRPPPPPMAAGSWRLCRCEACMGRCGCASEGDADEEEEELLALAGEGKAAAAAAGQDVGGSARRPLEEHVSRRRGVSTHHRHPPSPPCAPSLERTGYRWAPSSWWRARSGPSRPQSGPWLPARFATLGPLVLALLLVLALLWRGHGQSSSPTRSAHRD
# UniProt D3XDP1: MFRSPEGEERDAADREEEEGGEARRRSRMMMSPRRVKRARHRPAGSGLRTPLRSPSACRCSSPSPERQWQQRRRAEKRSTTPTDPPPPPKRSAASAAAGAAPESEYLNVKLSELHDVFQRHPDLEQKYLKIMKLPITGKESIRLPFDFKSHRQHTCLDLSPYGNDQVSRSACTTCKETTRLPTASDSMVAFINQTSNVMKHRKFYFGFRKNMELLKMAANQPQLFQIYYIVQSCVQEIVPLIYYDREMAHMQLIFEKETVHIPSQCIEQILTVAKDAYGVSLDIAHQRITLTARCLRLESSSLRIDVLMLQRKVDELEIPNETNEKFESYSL
# UniProt P16788: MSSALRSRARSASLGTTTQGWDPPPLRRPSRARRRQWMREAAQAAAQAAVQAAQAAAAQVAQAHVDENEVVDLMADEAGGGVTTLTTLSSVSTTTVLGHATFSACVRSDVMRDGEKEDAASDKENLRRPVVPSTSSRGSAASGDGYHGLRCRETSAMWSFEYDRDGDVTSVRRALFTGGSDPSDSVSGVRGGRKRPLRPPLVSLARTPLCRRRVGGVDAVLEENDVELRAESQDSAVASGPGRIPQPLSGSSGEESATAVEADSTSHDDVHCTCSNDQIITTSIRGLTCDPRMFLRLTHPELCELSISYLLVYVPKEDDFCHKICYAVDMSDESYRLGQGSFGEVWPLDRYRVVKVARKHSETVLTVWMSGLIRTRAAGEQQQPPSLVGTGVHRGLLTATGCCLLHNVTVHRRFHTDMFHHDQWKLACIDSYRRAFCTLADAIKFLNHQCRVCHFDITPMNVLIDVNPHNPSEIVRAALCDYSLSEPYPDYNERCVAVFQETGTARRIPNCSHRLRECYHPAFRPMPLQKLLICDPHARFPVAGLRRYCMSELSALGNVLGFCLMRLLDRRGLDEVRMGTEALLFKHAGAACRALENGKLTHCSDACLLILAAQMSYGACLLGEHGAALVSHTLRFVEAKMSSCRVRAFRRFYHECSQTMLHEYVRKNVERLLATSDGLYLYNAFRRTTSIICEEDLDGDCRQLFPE
# UniProt Q4JQV1: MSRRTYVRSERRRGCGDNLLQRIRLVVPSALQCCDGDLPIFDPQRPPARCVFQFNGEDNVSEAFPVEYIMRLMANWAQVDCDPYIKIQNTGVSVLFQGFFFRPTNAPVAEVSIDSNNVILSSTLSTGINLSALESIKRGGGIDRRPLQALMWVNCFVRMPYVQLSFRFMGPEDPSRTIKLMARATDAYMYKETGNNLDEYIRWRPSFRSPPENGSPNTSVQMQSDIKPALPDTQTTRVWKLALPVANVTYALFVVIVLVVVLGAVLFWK
# UniProt Q07021, residues 74-282: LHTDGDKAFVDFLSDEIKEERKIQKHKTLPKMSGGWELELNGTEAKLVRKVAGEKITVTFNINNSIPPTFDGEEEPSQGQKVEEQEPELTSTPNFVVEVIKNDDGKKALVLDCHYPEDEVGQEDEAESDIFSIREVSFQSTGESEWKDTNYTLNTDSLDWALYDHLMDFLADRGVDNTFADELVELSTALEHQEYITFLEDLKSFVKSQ
# These are yes or no findings as the source states them, for the method shown. Binding seen in cells or lysates may run through a third protein. Some binding calls cover weakened binding; strength is not graded here. For part of these data: Sequences can lack the tags named with a protein.
# Columns and labels:
# Assay in all cases: co-IP
# [1] = target: T1, VZV Orf27, Flag-tagged (pcDNA-Orf27-Flag) (varicella zoster virus (VZV), strain Oka) (UniProt Q4JQU8)
# T1 sequence: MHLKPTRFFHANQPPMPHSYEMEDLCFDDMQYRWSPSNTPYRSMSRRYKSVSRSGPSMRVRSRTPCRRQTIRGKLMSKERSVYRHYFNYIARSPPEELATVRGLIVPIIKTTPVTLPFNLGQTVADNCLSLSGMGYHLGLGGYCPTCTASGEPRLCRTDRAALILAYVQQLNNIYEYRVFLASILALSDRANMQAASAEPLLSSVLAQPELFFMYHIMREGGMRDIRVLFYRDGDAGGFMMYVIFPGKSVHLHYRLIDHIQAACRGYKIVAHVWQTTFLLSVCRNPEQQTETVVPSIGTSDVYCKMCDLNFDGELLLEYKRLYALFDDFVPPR
# [2] = target: T2, EBV BFLF2, Flag-tagged (pcDNA-BFLF2-Flag) (Epstein-Barr virus (EBV), strain B95-8) (UniProt P0CK47)
# T2 sequence: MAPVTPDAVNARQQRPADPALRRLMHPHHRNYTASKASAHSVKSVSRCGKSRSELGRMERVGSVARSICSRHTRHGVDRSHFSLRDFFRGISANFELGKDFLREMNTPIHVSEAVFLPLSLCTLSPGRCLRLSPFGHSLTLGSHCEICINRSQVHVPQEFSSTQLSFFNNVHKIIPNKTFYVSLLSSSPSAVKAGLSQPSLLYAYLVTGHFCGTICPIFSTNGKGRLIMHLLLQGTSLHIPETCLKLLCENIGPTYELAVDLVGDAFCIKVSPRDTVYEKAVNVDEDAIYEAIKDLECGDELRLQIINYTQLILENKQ
# [3] = target: HCMV pUL53, Flag-tagged (pcDNA-UL53-Flag) (human cytomegalovirus (HCMV)) (UniProt P16794)
# [4] = target: MCMV pM50, HA-tagged (pcDNA-M50-HA) (murine cytomegalovirus (MCMV), strain Smith) (UniProt D3XDN8)
# [5] = target: MCMV core NEC (transiently coexpressed pM50 and pM53) (murine cytomegalovirus (MCMV), strain Smith) (UniProt D3XDN8)
# [6] = target: HCMV core NEC (transiently coexpressed pUL50 and pUL53) (human cytomegalovirus (HCMV)) (UniProt P16791)
# [7] = target: MCMV pM53, Flag-tagged (pcDNA-M53-Flag) (murine cytomegalovirus (MCMV), strain Smith) (UniProt D3XDP1)
# [8] = target: HCMV pUL50, HA-tagged (pcDNA-UL50-HA) (human cytomegalovirus (HCMV)) (UniProt P16791)
# [9] = target: HCMV pUL53, HA-tagged (human cytomegalovirus (HCMV)) (UniProt P16794)
substance,measurement,setting,value
"HCMV pUL50, HA-tagged (pcDNA-UL50-HA) (from UniProt P16791 1-397)",binding,[1],no binding
same,binding,[2],no binding
same,binding,[3],binds
"HCMV pUL53, Flag-tagged (pcDNA-UL53-Flag) (from UniProt P16794 1-376)",binding,[4],binds
"HCMV protein kinase pUL97, Flag-tagged (from UniProt P16788 1-707) (enzyme)",binding,[5],binds
same,binding,[6],binds
"MCMV pM50, HA-tagged (pcDNA-M50-HA) (from UniProt D3XDN8 1-316)",binding,[7],binds
"MCMV pM53, Flag-tagged (pcDNA-M53-Flag) (from UniProt D3XDP1 1-332)",binding,[8],binds
same,binding,[9],binds
same,binding,[3],binds
"VZV Orf24, HA-tagged (pcDNA-Orf24-HA) (from UniProt Q4JQV1 1-269)",binding,[1],binds
same,binding,[2],no binding
same,binding,[3],no binding
cellular multi-ligand binding protein p32/gC1qR (from UniProt Q07021 74-282),binding,[5],binds
same,binding,[6],binds
same,binding,[7],binds
same,binding,[9],binds
same,binding,[3],binds
